Drawing on PubChem BioAssay AID1259407 (Chemical Carcinogenesis Research Information System (CCRIS), 2018), this text covers mutagenic call for three compounds.

Not every entry of the source has a single result; some have several. This list holds those alone. How the calls were made is not given here. The source may hold further records. Results that share an entry are repeats in other runs, samples, wells, individuals or studies. What stands in brackets tells the records apart. The letters are not those of the source and start again with each entry.

The test system of the series is CCRIS mutagenicity, Ames/micronucleus/aberration tests. The series is described as follows: CCRIS mutagenicity studies. The settings on record: Test System: AMES SALMONELLA TYPHIMURIUM

As for `c1ccc2ncccc2c1`, the mutagenic call (Strain/Indicator: TA1537, Metabolic Activation: RAT, LIVER, S-9, AROCLOR 1254, Method: STANDARD PLATE) was “active; positive [study A] and inactive; negative [study B, 5 to 200 µg/plate]”.
On to `COc1cc([C@@H]2c3cc4c(cc3[C@@H](O[C@@H]3O[C@@H]5CO[C@@H](c6cccs6)O[C@H]5[C@H](O)[C@H]3O)[C@H]3COC(=O)[C@H]23)OCO4)cc(OC)c1O`, for which the mutagenic call (Strain/Indicator: TA102, Metabolic Activation: NONE, Method: STANDARD PLATE) was “active; positive [study A, 250 µg/plate] and inactive; negative [study B, 0 to 100 µg/plate]”.
As for `O=C1c2ccccc2C(=O)c2ccccc21`, the mutagenic call (Strain/Indicator: TA98, Metabolic Activation: HAMSTER, LIVER, S-9, AROCLOR 1254 (30%), Method: PREINCUBATION) was “active; positive; 97% pure [study A] and active; positive [study B]”; the mutagenic call (Strain/Indicator: TA98, Metabolic Activation: RAT, LIVER, S-9, AROCLOR 1254 (30%), Method: PREINCUBATION) is “active; positive; 97% pure [study A] and active; positive [study B]”; the mutagenic call (Strain/Indicator: TA100, Metabolic Activation: HAMSTER, LIVER, S-9, AROCLOR 1254 (30%), Method: PREINCUBATION) is “active; positive; 97% pure [study A] and active; positive [study B]”; the mutagenic call (Strain/Indicator: TA100, Metabolic Activation: RAT, LIVER, S-9, AROCLOR 1254 (30%), Method: PREINCUBATION) is “active; positive; 97% pure [study A] and active; positive [study B]”.
